Values marked as one replicate rest on one cluster of the flow cell; about a third of the high ones do not repeat.
What follows are sequences tested on ATP (assay: switch fluorescence ratio, 500 uM ATP over buffer (Cy3 cluster intensity, sum of 5 cycles each) (fold (ratio)); higher = stronger signal-on switching upon ATP binding; sequences stand for … in TCGTCGGCAGCGTCAGATGTGTATAAGAGACAGTTTTTTTTTTTTTTTTTTTTTTTTT…TC). Conditions: aptamer strand: ATP DNA aptamer (quencher-CACCTGGGGGAGTATTGCGGAGGAAGG + anchor), 100 nM annealed; ATP concentration: 500 uM; one replicate.
In short: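 Five buffer/ATP imaging cycles were run on Cy3-labelled switching-strand clusters on a modified Illumina MiSeq flow-cell, with NaOH stripping and re-annealing between cycles. In each cycle, clusters annealed to 100 nM quencher-labelled ATP aptamer were imaged in selection buffer, then after 15 min with 500 uM ATP at 22 °C. Per cluster, the fluorescence ratio is summed target-cycle over summed buffer-cycle Cy3 intensity, averaged per switch-domain sequence. Only clusters within 100-1000 RFU were kept.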
For GTAGTTTGGT, the switch fluorescence ratio was 1.01.
GTATAACCGG showed a switch fluorescence ratio of 0.957.
Work on GTATAAGATA yielded a switch fluorescence ratio of 1.02.
For GTATAGTCAG, the switch fluorescence ratio was 0.995.
In the case of GTATAGTGTG, the switch fluorescence ratio is reported as 0.978.
In the case of GTATATAGGG, the switch fluorescence ratio is reported as 0.97.
Work on GTATATCAAT yielded a switch fluorescence ratio of 0.989.
With GTATATCGGT the switch fluorescence ratio was 0.979.
GTATATTGGC gave a switch fluorescence ratio of 0.969.
With GTATCCCGTA the switch fluorescence ratio was 1.05.
Sequence GTATCCGCGG has a switch fluorescence ratio of 1.08.
Sequence GTATCGAAAT has a switch fluorescence ratio of 1.04.
Sequence GTATCTGTCG has a switch fluorescence ratio of 1.01.
Work on GTATGAG yielded a switch fluorescence ratio of 0.983.
In the case of GTATGAGTAA, the switch fluorescence ratio is reported as 0.998.
Sequence GTATGCGT has a switch fluorescence ratio of 0.973.
GTATGCTGTT showed a switch fluorescence ratio of 1.03.
In the case of GTATGGAGTG, the switch fluorescence ratio is reported as 1.03.
GTATGGCAAA showed a switch fluorescence ratio of 0.976.
GTATGGTATT gave a switch fluorescence ratio of 1.02.
In the case of GTATGTGTTT, the switch fluorescence ratio is reported as 0.985.
GTATTCTTGG showed a switch fluorescence ratio of 0.965.
With GTATTGTAGC the switch fluorescence ratio was 1.05.
GTATTGTGCC showed a switch fluorescence ratio of 0.991.
GTATTTAACC showed a switch fluorescence ratio of 1.04.
GTCAAACACT gave a switch fluorescence ratio of 1.07.
Work on GTCAACATGT yielded a switch fluorescence ratio of 1.02.
GTCAACCTTT was tested, and the switch fluorescence ratio was 1.
Sequence GTCAACTCCG has a switch fluorescence ratio of 1.18.
For GTCAAGATGG, the switch fluorescence ratio was 0.988.
With GTCAATAACG the switch fluorescence ratio was 1.04.
Work on GTCAATGGC yielded a switch fluorescence ratio of 1.07.
GTCACAAGCT gave a switch fluorescence ratio of 0.932.
GTCACAATTA gave a switch fluorescence ratio of 0.995.
In the case of GTCACAATTT, the switch fluorescence ratio is reported as 0.978.
Work on GTCACAGAC yielded a switch fluorescence ratio of 1.05.
In the case of GTCACCTGAG, the switch fluorescence ratio is reported as 1.31.
In the case of GTCACTCGTA, the switch fluorescence ratio is reported as 1.05.
For GTCACTCTGC, the switch fluorescence ratio was 1.12.
GTCACTGGCA gave a switch fluorescence ratio of 1.06.
In the case of GTCAGACGTT, the switch fluorescence ratio is reported as 1.04.
For GTCAGATGTC, the switch fluorescence ratio was 0.933.
In the case of GTCAGCAGGG, the switch fluorescence ratio is reported as 1.01.
GTCAGCC was tested, and the switch fluorescence ratio was 1.01.
In the case of GTCAGGGAAG, the switch fluorescence ratio is reported as 0.997.
GTCATCATCC gave a switch fluorescence ratio of 0.989.
GTCATCTGTA showed a switch fluorescence ratio of 0.998.
For GTCATGTAC, the switch fluorescence ratio was 1.2.
GTCATTTAGT showed a switch fluorescence ratio of 0.981.
GTCCCCGAGA showed a switch fluorescence ratio of 1.02.
GTCCCCTCAA was tested, and the switch fluorescence ratio was 1.14.
With GTCCCGGCCA the switch fluorescence ratio was 0.952.
For GTCCCGGTTG, the switch fluorescence ratio was 1.08.
GTCCCTAATA gave a switch fluorescence ratio of 1.04.
Sequence GTCCCTGCGA has a switch fluorescence ratio of 1.22.
Sequence GTCCGCGGCG has a switch fluorescence ratio of 0.989.
GTCCGGTGAT gave a switch fluorescence ratio of 0.995.
For GTCCGTACAT, the switch fluorescence ratio was 0.998.
GTCCTAAAGC was tested, and the switch fluorescence ratio was 1.07.
In the case of GTCCTAGATG, the switch fluorescence ratio is reported as 0.955.
Work on GTCCTCATGT yielded a switch fluorescence ratio of 1.03.
Sequence GTCCTCCGGG has a switch fluorescence ratio of 1.99.
For GTCCTTAATG, the switch fluorescence ratio was 0.99.
Work on GTCCTTTAGT yielded a switch fluorescence ratio of 0.963.
GTCCTTTGCT showed a switch fluorescence ratio of 0.988.
GTCGAACGGT gave a switch fluorescence ratio of 0.993.
GTCGACTCAA showed a switch fluorescence ratio of 1.04.
For GTCGATACCG, the switch fluorescence ratio was 0.978.
GTCGATCACT showed a switch fluorescence ratio of 1.08.
GTCGATTAA gave a switch fluorescence ratio of 0.954.
For GTCGATTCGC, the switch fluorescence ratio was 0.97.
For GTCGCACATG, the switch fluorescence ratio was 0.946.
GTCGCATGGC was tested, and the switch fluorescence ratio was 1.19.
Work on GTCGCATTGA yielded a switch fluorescence ratio of 1.02.
GTCGCCCAGC showed a switch fluorescence ratio of 0.995.
Sequence GTCGCGATTG has a switch fluorescence ratio of 1.04.
With GTCGCTCATG the switch fluorescence ratio was 1.03.
GTCGCTTTGG gave a switch fluorescence ratio of 0.959.
In the case of GTCGGAAAAG, the switch fluorescence ratio is reported as 1.01.
GTCGGAACGC showed a switch fluorescence ratio of 1.07.
GTCGGAATAT was tested, and the switch fluorescence ratio was 1.02.
With GTCGGAATGG the switch fluorescence ratio was 1.1.
GTCGGCGCTG showed a switch fluorescence ratio of 0.969.
In the case of GTCGGCTTGG, the switch fluorescence ratio is reported as 0.928.
GTCGGGATCA showed a switch fluorescence ratio of 1.02.

From the supplement of paper PMC10126150
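Also: ATP exposure 15 min at 22 °C before imaging.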
